Reference: publication PMC12847774, “SERPINB3 enhances NPM1 sumoylation via inhibiting SENP3’s activity and promotes lung tumorigenesis” (Cell Death & Disease, 2025)

Target: T1, SENP3 purified protein (UniProt Q9H4L4 1-574)
T1 construct: SENP3; cloned into pET-28a(+) between BamHI and HindIII; also called wild-type SENP3; pET-28a (+)-SENP3; source: E. coli Rosetta (DE3), purified (Ni-NTA)
Assay: co-IP; in vitro immunoprecipitation with Flag antibody using purified recombinant proteins
Conditions: both partners purified

B1: NPM1Δ2-9 (natural protein)
chain: not shown
notes: NPM1 without residues 2-9; Flag tag surmised as for m14; also called N-terminal deletion; N-terminal truncation
- binding result: binds
